# Source: PMC4336329 (PLoS ONE, 2015)
# Hit rate of the full screen: of about 310,000 compounds, about 14,000 (4.5%) showed an effect of 50% or more. Effects have a minus sign here. The list shows a part of the results.
# Target: human ether-à-go-go-related gene (hERG) potassium channel (human, UniProt Q12809)
# Test: primary screen, population patch clamp on CHO cells stably expressing hERG
# 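Also: peak tail current of the secondary pulse compared with the same well before compound.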
# human ether-à-go-go-related gene (hERG) potassium channel, sequence (Q12809 whole entry, looked up): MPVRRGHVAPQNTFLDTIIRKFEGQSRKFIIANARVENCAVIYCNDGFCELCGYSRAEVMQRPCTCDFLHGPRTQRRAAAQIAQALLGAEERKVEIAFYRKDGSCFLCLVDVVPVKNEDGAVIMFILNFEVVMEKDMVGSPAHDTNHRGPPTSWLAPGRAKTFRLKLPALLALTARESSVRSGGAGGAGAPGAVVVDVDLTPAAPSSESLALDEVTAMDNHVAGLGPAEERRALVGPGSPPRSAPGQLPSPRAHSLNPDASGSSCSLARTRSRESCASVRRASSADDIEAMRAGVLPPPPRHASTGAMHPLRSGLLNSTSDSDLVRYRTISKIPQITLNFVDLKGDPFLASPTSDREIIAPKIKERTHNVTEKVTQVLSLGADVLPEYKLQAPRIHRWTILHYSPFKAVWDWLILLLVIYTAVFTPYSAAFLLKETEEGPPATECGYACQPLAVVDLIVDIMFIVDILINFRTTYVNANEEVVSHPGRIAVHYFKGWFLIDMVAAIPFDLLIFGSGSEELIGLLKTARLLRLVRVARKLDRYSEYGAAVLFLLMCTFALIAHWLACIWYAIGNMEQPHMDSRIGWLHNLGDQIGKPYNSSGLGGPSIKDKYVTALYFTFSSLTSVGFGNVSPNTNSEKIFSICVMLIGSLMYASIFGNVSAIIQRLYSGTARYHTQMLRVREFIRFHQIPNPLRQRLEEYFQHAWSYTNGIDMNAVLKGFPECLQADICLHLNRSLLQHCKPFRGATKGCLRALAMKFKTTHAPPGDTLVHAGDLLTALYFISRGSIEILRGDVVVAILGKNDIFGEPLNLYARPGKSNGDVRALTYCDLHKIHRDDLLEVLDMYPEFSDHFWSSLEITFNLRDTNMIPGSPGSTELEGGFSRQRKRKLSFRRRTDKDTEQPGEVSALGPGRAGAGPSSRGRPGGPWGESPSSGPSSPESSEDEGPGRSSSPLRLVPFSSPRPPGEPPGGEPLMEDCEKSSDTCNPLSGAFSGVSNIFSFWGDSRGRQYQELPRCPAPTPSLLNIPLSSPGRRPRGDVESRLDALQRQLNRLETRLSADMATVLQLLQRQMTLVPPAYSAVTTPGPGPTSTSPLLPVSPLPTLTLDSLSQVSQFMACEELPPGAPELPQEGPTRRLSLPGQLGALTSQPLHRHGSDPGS
row,Compound,"hERG current change (%, negative = inhibition) at 10uM"
1,O=C(NCCCCNC(=O)c1ccc(F)cc1)c1ccc(F)cc1,13.3%
2,Cc1ccc(S(=O)(=O)c2cc3c(=O)n4cccc(C)c4nc3n(C3CCCCC3)c2=N)cc1,15.7%
3,CCn1c(=O)c2c3c(sc2n(C)c1=O)CCC3,1.36%
4,CC(OC(=O)c1cccc(-n2cnnn2)c1)c1nc2ccccc2c(=O)[nH]1 (stereo not drawn),-35.4%
5,Cc1ccnc(SCc2cc(=O)c(OC(=O)c3ccc(Br)o3)co2)n1,-12.6%
6,CC1CCc2sc3c(c2C1)c(=O)n(CC(=O)O)c(=O)n3Cc1ccc(Cl)cc1 (stereo not drawn),8.22%
7,COc1c(C)cc(C(=O)C2CCCN(Cc3ccccn3)C2)cc1C (stereo not drawn),-16.5%
8,O=S(=O)(c1ccc(NC(=S)NN=C(C2CC2)C2CC2)cc1)N1CCOCC1,13.8%
9,CSCC(NS(=O)(=O)c1ccc(C)cc1)C(=O)O (stereo not drawn),8.98%
10,CCSc1nnc2c(Cl)cc(Cl)cn12,5.28%
11,CCC(C)OC1OC(CO)C(O)C(O)C1NC(C)=O (stereo not drawn),16%
12,COc1cc2c(cc1OC)CN(C(=O)c1ccncc1)CC2,12.4%
13,CCCCn1c(N)c(N(Cc2ccccc2OC)C(=O)CCSC)c(=O)[nH]c1=O,-6.99%
14,Cc1ccc(SCCC(=O)Nc2ccccc2C(=O)NC(C)C)cc1,-14.7%
15,CCc1nnc(NC(=O)CSc2ncnc3c2cnn3-c2ccc(OC)cc2)s1,11.7%
16,CCn1c(O)c(N=NC(=O)CNC(=O)/C=C/c2ccco2)c2ccccc21,0.357%
17,COc1cc(CNc2ccc3[nH]c(=O)[nH]c3c2)ccc1OCc1c(F)cccc1Cl,14.5%
18,O=C(Nc1ccc(N2CCCC2)cc1)C(Cl)c1ccccc1 (stereo not drawn),-6.48%
19,CN=C1S/C(=C\c2ccc(N3CCOCC3)cc2C)C(=O)N1C,31.8%

row,Compound,"hERG current change (%, negative = inhibition) at 10uM"
1,O=C(O)c1ccc(-c2sc(Nc3ccccc3)n[n+]2-c2ccc(F)cc2)cc1.[Cl-],2.83%
2,CC(C)(C)NC(=O)c1ccccc1NC(=O)c1ccc2c(c1)OCO2,4.8%
3,C=CCn1c(SCC(=O)NCc2ccccc2)nnc1-c1cc(Br)ccc1O,-30.4%
4,Cn1c(=O)c2c(ncn2CC(=O)N2CCN(S(=O)(=O)c3ccccc3)CC2)n(C)c1=O,0.716%
5,Cc1ccc(CNC(=O)CCCc2ccccc2)cc1,-21.3%
6,COc1cc(Br)c(CCNC(=O)Cc2ccccc2)cc1OC,-18.4%
7,COC(=O)c1cccc(NC(=O)c2cccnc2)c1.Cl,-19.7%
8,O=C(Cc1n[nH]c(=O)c2ccccc12)NCc1ccccc1,3.17%
9,CCOC(=O)/C(C#N)=C/c1cc(C)n(-c2ccc(Br)cc2)c1C,9.5%
10,CC(=O)c1cc2c(cc1NC(=O)CSc1nc3ccc(C)cc3[nH]1)OCO2,-21%
11,NC(=O)CC(NC(=O)c1cccc(Br)c1)c1ccc(N2CCN(c3ccc(F)cc3)CC2)c([N+](=O)[O-])c1 (stereo not drawn),-2.08%
12,O=C(NCCN1CCOCC1)Nc1ccccc1,-6.63%
13,CC1CC(=O)c2c(cc3c(-c4c(O)cc(O)c5c(O)c6c(cc45)OC(C)CC6=O)c(O)cc(O)c3c2O)O1 (stereo not drawn),-11.5%
14,CC(SC1=NCCN1S(C)(=O)=O)c1ccccc1 (stereo not drawn),11.3%
15,Cc1cc(=O)[nH]c(SCC(=O)Nc2nc(-c3ccccc3)c(-c3ccccc3)o2)n1,3.76%
16,CCn1c(SCC(N)=O)nc2sc3c(c2c1=O)CCN(C)C3,16.2%
17,O=C(COc1ccc2ccccc2c1)NCCc1ccc2c(c1)OCCO2,-17.1%
18,COc1ccc(-n2c(=O)cc(N3CCN(c4ccccc4)CC3)[nH]c2=O)cc1,20%
19,COc1cccc(-c2cc(C(=O)NC3CCCC3)no2)c1,-6.34%

row,Compound,"hERG current change (%, negative = inhibition) at 10uM"
1,CNC(=O)C(NC(=O)c1ccccc1)=C(C)C,-8.15%
2,COc1ccc(N(CC(=O)N2CCN(Cc3ccccc3)CC2)S(C)(=O)=O)c(OC)c1,3.99%
3,O=C(CN1C(=O)c2ccccc2C1=O)N1CCCCC1,-6.26%
4,COc1ccc(-c2csc(N(CCCN(C)C)C(=O)c3ccccc3Cl)n2)cc1.Cl,-67.3%
5,COc1ccc(NC(=O)CCN2CCN(c3ccc(F)cc3)CC2)cc1,-33%
6,O=C(NCc1cccc2[nH]ccc12)C1CCC(=O)N(CCc2ccccc2)C1 (stereo not drawn),17.4%
7,COc1cccc(NC(=O)COC(=O)c2c(C)noc2C)c1,6.67%
8,C=C(C)C1CC=C(C)/C(=N/NC(=O)CCCNc2cccc(C)c2)C1 (stereo not drawn),9.43%
9,O=C(NCc1ccccc1)Nc1cccn(Cc2ccccc2Cl)c1=O,18.8%
10,O=C(Nc1cccc(C(F)(F)F)c1)C1CC(=O)N(CCc2ccccc2)C1 (stereo not drawn),-22.9%
11,COCCCNC(=O)c1ccc(C2SCC(=O)N2Cc2ccco2)cc1 (stereo not drawn),8.41%
12,COc1ccc(-c2nc(C#N)c(N3CCC(C(N)=O)CC3)o2)cc1,-15.6%
13,Cc1ccccc1C(=O)NC(NC(=S)Nc1ccc(S(N)(=O)=O)cc1)C(Cl)(Cl)Cl (stereo not drawn),19.3%
14,Cc1c(C(=O)N2CCN(c3ccccc3)CC2)sc2ncnc(N3CCN(c4ccccn4)CC3)c12,-35.1%
15,Cc1cc(Br)cc(C)c1OCC(=O)NNC(=O)c1cccs1,-9.81%
16,COc1ccc2[nH]c(C(=O)N/N=C/c3cc(OC)c(OC)c(OC)c3)cc2c1,7.49%
17,O=S(=O)(NCc1ccncc1)c1ccccc1,7.56%
18,CN(c1ccc(C(=O)NCCSCc2c(F)cccc2Cl)cc1)S(C)(=O)=O,1.6%
19,O=S(=O)(Cc1ccccc1)N=Nc1c(O)[nH]c2ccc(Br)cc12,9.9%
